Experimental data from a collection of fitness landscapes (doi:10.1016/j.celrep.2020.107928).
The full ranking holds about 81,000 sequences; the median of “one-hybrid fitness for binding parS DNA” is about -0.17, and the highest 2% start at about 0.51. The list shows a part of the results.

B1: Caulobacter ParB omega fusion; a variant is named by its letters at X, in order, B8GW30 (parent)
chain: MESVVVGEPGMSEGRRGLGRGLSALLGEVDAAPAQAPGEQLGGSREAPIEILQRNPDQPRRTFREEDLEDLSNSIREKGVLQPILVRPSPDTAGEYQIVAGERAWRAAQRAGLKTVPIMVRELDDLAVLEIGIIENVQRADLNVLEEALSYKVLMEKFERTQENIAQTIGKSXSHVANXMRLLXLPDEVQSYLVSGELTAXHARAIAAAADPVALAKQIIEGGLSVRETEALARKAPNLSAGKSKGGRPPRVKDTDTQALESDLSSVLGLDVSIDHRGSTGTLTITYATLEQLDDLCNRLTRGI

Variants of: B1
Test: one-hybrid fitness for binding parS DNA (scaled: cognate 1, non-cognate 0); higher = stronger binding
Conditions: with parS DNA site
Outline: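 Pre- and post-selection plasmids were Illumina-sequenced, three replicate libraries were pooled, and any variant with under 10 reads was removed. The libraries were Caulobacter ParB with four specificity codons randomised, selected in E. coli USO through a HIS3 reporter whose site is 19 bp from the promoter. Cells grew 48 hours at 37°C on M9 without histidine, with 0.1 mM IPTG and 5 mM 3-AT. Fitness is the log change in variant-to-wild-type read ratio, rescaled against cognate and non-cognate.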

one-hybrid fitness for binding parS DNA, ≤ 0.2:
ARIT
GVRV
YPAM
RQQV
GITG
PYTW
KNHG
PTDK
DDNA
AFHL
QDSC
TTSH
AGYC
LKDM
TKFR
VSVV
PFGA
PANN
MVRC
VVSA
WCTS
SHCT
QCQW
AWTE
CNGT
CITS
VKIM
GDNR
NSTN
WIVS
YPDE
QKYG
NSDW
GCTC
PFRC
AYRT
KTMS
KMTH
EELG
LHRP
YSTD
TATV
NTVS
NRLA
TLWD
SKDS
AFTF
HSTD
EVLK
VDCF
MMLS
YNPT
QSGC
VRKR
LHDL
QHAG
KHLR
WLDV
GFPW
NASA
ASVP
PQMV
QYRY
QLTV
YQRE
MGVD
HKAL
QLIP
SKTC
SLCA
DNRR
WSIS
SCTF
ITND
TAEE
QPYE
NCKF
SAKH
TSKP
GPHN
CIRL
LMMV
KRKC
RIQD
DFLC
PRPG
WRRN
SWMS
EPPS
LHCS
SMTS
YNRN
QQNN

one-hybrid fitness for binding parS DNA, 0.904:
RAYT

one-hybrid fitness for binding parS DNA, 0.221:
EAPT

one-hybrid fitness for binding parS DNA, 0.223:
RYDQ

one-hybrid fitness for binding parS DNA, 0.932:
RYFG
